Our source for the binding signal values is publication PMC9911399, “Two distinct binding modes provide the RNA-binding protein RbFox with extraordinary sequence specificity”.

Substitutions are numbered along the chain they refer to; changes in the protein carry UniProt numbers. The list shows a part of the results.

To fix the notation:
T1: RBFOX1 RRM (Homo sapiens, UniProt Q9NWB1 109-208)
T1 sequence: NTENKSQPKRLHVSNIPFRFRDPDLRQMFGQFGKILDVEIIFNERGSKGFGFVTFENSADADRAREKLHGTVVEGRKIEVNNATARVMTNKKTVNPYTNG

B1: GACACGC (DNA:RNA)
RNA: GGGAGACCGGAAUUCAGAUUGUCCGACACGCUUAAAUCCCGUCGUAGCCACCA
DNA 1: CAATCTGAATTCCGGTCTCCC
DNA 2: TGGTGGCTACGACGGGATT
B2: UGGAUCA (DNA:RNA)
RNA: B1 RNA with G25U, A26G, C27G, C29U, G30C, C31A
DNA 1: CAATCTGAATTCCGGTCTCCC
DNA 2: TGGTGGCTACGACGGGATT
B3: GUGGCAG (DNA:RNA)
RNA: B1 RNA with A26U, C27G, A28G, G30A, C31G
DNA 1: CAATCTGAATTCCGGTCTCCC
DNA 2: TGGTGGCTACGACGGGATT
B4: AGCGGAG (DNA:RNA)
RNA: B1 RNA with G25A, A26G, A28G, C29G, G30A, C31G
DNA 1: CAATCTGAATTCCGGTCTCCC
DNA 2: TGGTGGCTACGACGGGATT
B5: AGUAGGU (DNA:RNA)
RNA: B1 RNA with G25A, A26G, C27U, C29G, C31U
DNA 1: CAATCTGAATTCCGGTCTCCC
DNA 2: TGGTGGCTACGACGGGATT
B6: GGUUUUU (DNA:RNA)
RNA: B1 RNA with A26G, C27U, A28U, C29U, G30U, C31U
DNA 1: CAATCTGAATTCCGGTCTCCC
DNA 2: TGGTGGCTACGACGGGATT
B7: ACAACCC (DNA:RNA)
RNA: B1 RNA with G25A, A26C, C27A, G30C
DNA 1: CAATCTGAATTCCGGTCTCCC
DNA 2: TGGTGGCTACGACGGGATT
B8: CAGUGAU (DNA:RNA)
RNA: B1 RNA with G25C, C27G, A28U, C29G, G30A, C31U
DNA 1: CAATCTGAATTCCGGTCTCCC
DNA 2: TGGTGGCTACGACGGGATT
B9: GGAAAGG (DNA:RNA)
RNA: B1 RNA with A26G, C27A, C29A, C31G
DNA 1: CAATCTGAATTCCGGTCTCCC
DNA 2: TGGTGGCTACGACGGGATT
B10: UCCAUAA (DNA:RNA)
RNA: B1 RNA with G25U, A26C, C29U, G30A, C31A
DNA 1: CAATCTGAATTCCGGTCTCCC
DNA 2: TGGTGGCTACGACGGGATT
B11: AGGCUUC (DNA:RNA)
RNA: B1 RNA with G25A, A26G, C27G, A28C, C29U, G30U
DNA 1: CAATCTGAATTCCGGTCTCCC
DNA 2: TGGTGGCTACGACGGGATT
B12: AUAGGCU (DNA:RNA)
RNA: GGGAGACCGGAAUUCAGAUUGUCCAUAGGCUUUAAAUCCCGUCGUAGCCACCA
DNA 1: CAATCTGAATTCCGGTCTCCC
DNA 2: TGGTGGCTACGACGGGATT
B13: GCAGGAG (DNA:RNA)
RNA: B12 RNA with A25G, U26C, C30A, U31G
DNA 1: CAATCTGAATTCCGGTCTCCC
DNA 2: TGGTGGCTACGACGGGATT
B14: AAGAUUC (DNA:RNA)
RNA: B1 RNA with G25A, C27G, C29U, G30U
DNA 1: CAATCTGAATTCCGGTCTCCC
DNA 2: TGGTGGCTACGACGGGATT
B15: UGGGUUC (DNA:RNA)
RNA: B12 RNA with A25U, U26G, A27G, G29U, C30U, U31C
DNA 1: CAATCTGAATTCCGGTCTCCC
DNA 2: TGGTGGCTACGACGGGATT
B16: AUCGACU (DNA:RNA)
RNA: B12 RNA with A27C, G29A
DNA 1: CAATCTGAATTCCGGTCTCCC
DNA 2: TGGTGGCTACGACGGGATT
B17: AAGGUAG (DNA:RNA)
RNA: B12 RNA with U26A, A27G, G29U, C30A, U31G
DNA 1: CAATCTGAATTCCGGTCTCCC
DNA 2: TGGTGGCTACGACGGGATT
B18: AUGUGGU (DNA:RNA)
RNA: B12 RNA with A27G, G28U, C30G
DNA 1: CAATCTGAATTCCGGTCTCCC
DNA 2: TGGTGGCTACGACGGGATT
B19: UCAUCUA (DNA:RNA)
RNA: B12 RNA with A25U, U26C, G28U, G29C, C30U, U31A
DNA 1: CAATCTGAATTCCGGTCTCCC
DNA 2: TGGTGGCTACGACGGGATT
B20: AUUCAGU (DNA:RNA)
RNA: B12 RNA with A27U, G28C, G29A, C30G
DNA 1: CAATCTGAATTCCGGTCTCCC
DNA 2: TGGTGGCTACGACGGGATT

In the assay the target is T1, RBFOX1 RRM. Description: EMSA; HiTS-Eq, 1 nM pool, 10 min; buffer printed only for the single-RNA assays: 10 mM Tris pH 7.5, 150 mM NaCl, 3.4 mM EDTA, 0.001% NP-40, 30 C. The note with it: tags: His6 N-terminal (pET28a); label: 5' 32P. Summed up:
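A pool of RNA with 7 randomized nucleotides, 5′-radiolabelled and with DNA-annealed flanks, was equilibrated at 1 nM for 10 min in 50 µL with purified RbFox RRM, wild type or mutant, across increasing protein concentrations. Free RNA was separated by 8% native PAGE, excised, reverse-transcribed, barcoded by PCR and sequenced. Relative association constants were obtained from read-count changes of each RNA species versus the control reaction and normalised to the cognate motif.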
In the case of B1, the binding signal is 0.00981 KA relative to UGCAUGU.
As for B2, the binding signal was 0.0231 KA relative to UGCAUGU.
In the case of B3 it was 0.0182 KA relative to UGCAUGU; in that of B4, 0.00961 KA relative to UGCAUGU.
For the molecule B5, the binding signal was 0.00705 KA relative to UGCAUGU.
On to B6, for which the binding signal was 0.00799 KA relative to UGCAUGU.
Under B7 stands 0.00239 KA relative to UGCAUGU.
Take B8: the binding signal is 0.00947 KA relative to UGCAUGU.
With B9, the binding signal was 0.0155 KA relative to UGCAUGU.
Under B10 stands 0.000205 KA relative to UGCAUGU; under B11, 0.0172 KA relative to UGCAUGU.
Turning to B12, the binding signal is 0.00605 KA relative to UGCAUGU.
Take B13: the binding signal was 0.00845 KA relative to UGCAUGU.
Under B14 stands 0.00483 KA relative to UGCAUGU; under B15, 0.0352 KA relative to UGCAUGU.
In the case of B16, the binding signal was 0.00559 KA relative to UGCAUGU.
With B17, the binding signal was 0.0097 KA relative to UGCAUGU.
Turning to B18, the binding signal is 0.0169 KA relative to UGCAUGU.
As to B19, the binding signal was 0.00411 KA relative to UGCAUGU.
Under B20 stands 0.00563 KA relative to UGCAUGU.
